Like-named read-outs stand apart in the source and are kept apart here.
Legend:
[1] = tested on: HAP1 MTAP-deleted cell line; test: Viability assay, HAP1 MTAP-deleted cell line; type: cell-based; conditions: Homo sapiens
[2] = tested on: SDMA in HAP1 MTAP-intact cell line (PRMT5 inhibition); test: SDMA in-cell western assay, HAP1 MTAP-intact cell line; conditions: Homo sapiens, HAP1, read-out: Hap1 MTAP intact IC50
[3] = tested on: SDMA in HAP1 MTAP-deleted (MTAP-null) cell line (PRMT5 inhibition); test: SDMA in-cell western assay, HAP1 MTAP-deleted cell line; conditions: for IC50 / IC90: Homo sapiens; for IC50: HAP1, read-out: Hap1 MTAP deleted IC50; for IC90: HAP1, read-out: Hap1 MTAP deleted IC90; for Hap1 MTAP intact/deleted ratio: ratio of SDMA IC50 in HAP1 MTAP-intact to HAP1 MTAP-deleted cell line
[4] = HAP1, read-out: Hap1 MTAP deleted viability IC50
[5] = viability assay, HAP1 MTAP-deleted cell line, read-out: Hap1 MTAP deleted viability IC50

## CC(c1ccc(C(F)(F)F)cc1)N(C)C(=O)C(=O)Nc1cnc(N)c2cn[nH]c12 (racemic) [Compound 85, rac-N^1-(4-amino-1H-pyrazolo[4,3-c]pyridin-7-yl)-N^2-methyl-N^2-(1-(4-(trifluoromethyl)phenyl)ethyl)oxalamide]
[1]; [4]
  IC50: < 100 nM

## C[C@@H]1OCc2c(NC(=O)C(=O)N(C)[C@H](C)c3ccc(C(F)(F)F)cc3F)cnc(N)c21 (single isomer, unassigned) [Compound 196]
[1]; [5]
  IC50: 100 to 1000 nM

## CC[C@@H](C)N(Cc1ccccc1)C(=O)C(=O)Nc1cnc(N)c2cn[nH]c12 (stereo in doubt) [Compound 48, N-(4-amino-1H-pyrazolo[4,3-c]pyridin-7-yl)-N′-benzyl-N′-sec-butyl-oxamide]
[1]; [5]
  IC50: 100 to 1000 nM
[2]
  IC50: > 50 nM
[3]
  IC50: < 5 nM
  IC90: > 125 nM
  Hap1 MTAP intact/deleted ratio: A (IC50 ratio greater than or equal to 30 fold)

## Cc1cc(NC(=O)C(=O)N(Cc2ccc(C(F)(F)F)cn2)[C@@H]2CCc3ccccc32)cnc1N [Compound 1, (R)—N^1-(6-amino-5-methylpyridin-3-yl)-N^2-(2,3-dihydro-1H-inden-1-yl)-N^2-((5-(trifluoromethyl)pyridin-2-yl)methyl)oxalamide]
[1]; [5]
  IC50: < 100 nM
[2]
  IC50: 5 to 50 nM
[3]
  IC50: < 5 nM
  IC90: < 75 nM
  Hap1 MTAP intact/deleted ratio: C (IC50 ratio of less than 15 fold)

## CC(C)C(C)N(Cc1ccc(C(F)(F)F)cn1)C(=O)C(=O)Nc1cnc(N)c2cn[nH]c12 (centres unmarked) [Compound 18, N-(4-amino-1H-pyrazolo[4,3-c]pyridin-7-yl)-N′-(1,2-dimethylpropyl)-N′-[[5-(trifluoromethyl)-2-pyridyl]methyl]oxamide]
[1]; [5]
  IC50: < 100 nM
[2]
  IC50: 5 to 50 nM
[3]
  IC50: < 5 nM
  IC90: < 75 nM
  Hap1 MTAP intact/deleted ratio: C (IC50 ratio of less than 15 fold)

## Nc1ncc(NC(=O)C(=O)N(Cc2ccc(C(F)(F)F)cn2)[C@@H]2CCc3ccccc32)cc1C1CC1 [Compound 23, (R)—N^1-(6-amino-5-cyclopropylpyridin-3-yl)-N^2-(2,3-dihydro-1H-inden-1-yl)-N^2-((5-(trifluoromethyl)pyridin-2-yl)methyl)oxalamide]
[1]; [5]
  IC50: < 100 nM
[2]
  IC50: > 50 nM
[3]
  IC50: 5 to 50 nM
  Hap1 MTAP intact/deleted ratio: A (IC50 ratio greater than or equal to 30 fold)

## COC[C@H](C1CC1)N(Cc1ccc(C(F)(F)F)cn1)C(=O)C(=O)Nc1cnc(N)c(C)c1 [Compound 24, (S)—N^1-(6-amino-5-methylpyridin-3-yl)-N^2-(1-cyclopropyl-2-methoxyethyl)-N^2-((5-(trifluoromethyl)pyridin-2-yl)methyl)oxalamide]
[1]; [5]
  IC50: < 100 nM
[2]
  IC50: 5 to 50 nM
[3]
  IC50: 5 to 50 nM
  IC90: > 125 nM
  Hap1 MTAP intact/deleted ratio: C (IC50 ratio of less than 15 fold)

## Nc1ncc(NC(=O)C(=O)N(Cc2ccccc2)Cc2ccc(F)cc2)c2[nH]ncc12 [Compound 38, N-(4-amino-1H-pyrazolo[4,3-c]pyridin-7-yl)-N′-benzyl-N′-[(4-fluorophenyl)methyl]oxamide]
[1]; [5]
  IC50: < 100 nM
[2]
  IC50: > 50 nM
[3]
  IC50: < 5 nM
  IC90: < 75 nM
  Hap1 MTAP intact/deleted ratio: A (IC50 ratio greater than or equal to 30 fold)

## NC(=O)c1cncc(NC(=O)C(=O)N(Cc2ccc(C(F)(F)F)cn2)[C@@H]2CCc3ccccc32)c1 [Compound 40, (R)—N^1-(5-carbamoylpyridin-3-yl)-N^2-(2,3-dihydro-1H-inden-1-yl)-N^2-((5-(trifluoromethyl)pyridin-2-yl)methyl)oxalamide]
[1]; [5]
  IC50: < 100 nM
[2]
  IC50: > 50 nM
[3]
  IC50: 5 to 50 nM
  IC90: > 125 nM
  Hap1 MTAP intact/deleted ratio: B (IC50 ratio greater than or equal to 15 fold but lower than 30 fold)

## Nc1ncc(NC(=O)C(=O)N(Cc2ccc(F)cc2)Cc2ccc(F)cc2)c2[nH]ncc12 [Compound 44]
[2]
  IC50: > 50 nM
[3]
  IC50: < 5 nM
  IC90: < 75 nM
  Hap1 MTAP intact/deleted ratio: A (IC50 ratio greater than or equal to 30 fold)

## Cc1cc(NC(=O)C(=O)N(Cc2ccc(C(F)(F)F)cn2)C(C)C(C)C)cnc1N (centres unmarked) [Compound 46, N-(6-amino-5-methyl-3-pyridyl)-N′-(1,2-dimethylpropyl)-N′-[[5-(trifluoromethyl)-2-pyridyl]methyl]oxamide]
[1]; [5]
  IC50: < 100 nM
[2]
  IC50: 5 to 50 nM
[3]
  IC50: 5 to 50 nM
  IC90: > 125 nM
  Hap1 MTAP intact/deleted ratio: C (IC50 ratio of less than 15 fold)

## COc1ncc(NC(=O)C(=O)N(Cc2ccc(C(F)(F)F)cn2)CC(C)C2CC2)cc1C(N)=O (centres unmarked) [Compound 47, N-(5-carbamoyl-6-methoxy-3-pyridyl)-N′-(2-cyclopropylpropyl)-N′-[[5-(trifluoromethyl)-2-pyridyl]methyl]oxamide]
[1]; [5]
  IC50: 100 to 1000 nM
[2]
  IC50: > 50 nM
[3]
  IC50: < 5 nM
  IC90: > 125 nM
  Hap1 MTAP intact/deleted ratio: A (IC50 ratio greater than or equal to 30 fold)

## C[C@@H](c1ccc(C(F)(F)F)cc1)N(C)C(=O)C(=O)Nc1cnc(N)c2cn[nH]c12 [Compound 53, (S)—N^1-(4-amino-1H-pyrazolo[4,3-c]pyridin-7-yl)-N^2-methyl-N^2-(1-(4-(trifluoromethyl)phenyl)ethyl)oxalamide]
[1]; [4]
  IC50: 100 to 1000 nM

## Nc1ncc(NC(=O)C(=O)N(Cc2ccccc2)Cc2cccc(C(F)(F)F)n2)c2[nH]ncc12 [Compound 55, N-(4-amino-1H-pyrazolo[4,3-c]pyridin-7-yl)-N′-benzyl-N′-[[6-(trifluoromethyl)-2-pyridyl]methyl]oxamide]
[1]; [5]
  IC50: < 100 nM
[2]
  IC50: 5 to 50 nM
[3]
  IC50: < 5 nM
  IC90: < 75 nM
  Hap1 MTAP intact/deleted ratio: B (IC50 ratio greater than or equal to 15 fold but lower than 30 fold)

## Nc1ncc(NC(=O)C(=O)N(Cc2ccc(C(F)(F)F)cn2)C2CCC2)c2[nH]ncc12 [Compound 61, N-(4-Amino-2H-pyrazolo[4,3-c]pyridin-7-yl)-N′-cyclobutyl-N′-[[5-(trifluoromethyl)-2-pyridyl]methyl]oxamide]
[1]; [5]
  IC50: < 100 nM
[2]
  IC50: 5 to 50 nM
[3]
  IC50: < 5 nM
  IC90: < 75 nM
  Hap1 MTAP intact/deleted ratio: B (IC50 ratio greater than or equal to 15 fold but lower than 30 fold)

## Nc1ncc(NC(=O)C(=O)N(Cc2ccc(F)cn2)Cc2ccccc2Cl)c2[nH]ncc12 [Compound 67, N-(4-amino-1H-pyrazolo[4,3-c]pyridin-7-yl)-N′-[(2-chlorophenyl)methyl]-N′-[(5-fluoro-2-pyridyl)methyl]oxamide]
[1]; [5]
  IC50: < 100 nM
[2]
  IC50: > 50 nM
[3]
  IC50: < 5 nM
  IC90: < 75 nM
  Hap1 MTAP intact/deleted ratio: B (IC50 ratio greater than or equal to 15 fold but lower than 30 fold)

## C[C@H](c1ccc(C(F)(F)F)cc1)N(C)C(=O)C(=O)Nc1cnc(N)c2cn[nH]c12 [Compound 78, (R)—N^1-(4-amino-1H-pyrazolo[4,3-c]pyridin-7-yl)-N^2-methyl-N^2-(1-(4-(trifluoromethyl)phenyl)ethyl)oxalamide]
[1]; [4]
  IC50: < 100 nM

## C[C@H](c1ccc(C(F)(F)F)cc1)N(C)C(=O)C(=O)Nc1cnc(N)c2c1cnn2C [Compound 80, N-(7-Amino-1-methyl-pyrazolo[3,4-c]pyridin-4-yl)-N′-methyl-N′—[(1R)-1-[4-(trifluoromethyl)phenyl]ethyl]oxamide]
[1]; [5]
  IC50: < 100 nM
[2]
  IC50: > 50 nM
[3]
  IC50: < 5 nM
  IC90: < 75 nM
  Hap1 MTAP intact/deleted ratio: A (IC50 ratio greater than or equal to 30 fold)

## CCN(C(=O)C(=O)Nc1cnc(N)c2cn[nH]c12)[C@H](C)c1ccc(C(F)(F)C(F)(F)F)cc1F [Compound 103, N-(4-Amino-1H-pyrazolo[4,3-c]pyridin-7-yl)-N′-ethyl-N′—[(1R)-1-[2-fluoro-4-(1,1,2,2,2-pentafluoroethyl)phenyl]ethyl]oxamide]
[1]; [5]
  IC50: < 100 nM
[2]
  IC50: 5 to 50 nM
[3]
  IC50: < 5 nM
  IC90: < 75 nM
  Hap1 MTAP intact/deleted ratio: C (IC50 ratio of less than 15 fold)

## CC(c1ccc(F)cc1)N(C(=O)C(=O)Nc1cnc(N)c2cn[nH]c12)C(C)c1ccc(F)cc1 (centres unmarked) [Compound 112, N-(4-amino-1H-pyrazolo[4,3-c]pyridin-7-yl)-N′,N′-bis [1-(4-fluorophenyl)ethyl]oxamide]
[1]; [5]
  IC50: < 100 nM
[2]
  IC50: > 50 nM
[3]
  IC50: < 5 nM
  IC90: < 75 nM
  Hap1 MTAP intact/deleted ratio: B (IC50 ratio greater than or equal to 15 fold but lower than 30 fold)

## N#Cc1ccc(CN(Cc2ncccn2)C(=O)C(=O)Nc2cnc(N)c3cn[nH]c23)nc1 [Compound 113, N-(4-amino-1H-pyrazolo[4.3-c]pyridin-7-yl)-N′-[(5-cyano-2-pyridyl)methyl]-N′-(pyrimidin-2-ylmethyl)oxamide]
[1]; [5]
  IC50: 100 to 1000 nM
[2]
  IC50: > 50 nM
[3]
  IC50: 5 to 50 nM
  IC90: > 125 nM
  Hap1 MTAP intact/deleted ratio: B (IC50 ratio greater than or equal to 15 fold but lower than 30 fold)

## C[C@H](c1ccc(F)cc1)N(C)C(=O)C(=O)Nc1cnc(N)c2cn[nH]c12 [Compound 144, (R)—N^1-(4-amino-1H-pyrazolo[4,3-c]pyridin-7-yl)-N^2-(1-(4-fluorophenyl)ethyl)-N^2-methyloxalamide]
[1]; [4]
  IC50: < 100 nM
[2]
  IC50: > 50 nM

## C[C@H](c1ccccc1F)N(C)C(=O)C(=O)Nc1cnc(N)c2cn[nH]c12 [Compound 162, (R)—N^1-(4-amino-1H-pyrazolo[4,3-c]pyridin-7-yl)-N^2-(1-(2-fluorophenyl)ethyl)-N^2-methyloxalamide]
[1]; [4]
  IC50: 100 to 1000 nM
[2]
  IC50: > 50 nM

## C[C@H](c1ccc(C(F)(F)F)cc1F)N(C)C(=O)C(=O)Nc1cnc(N)c2c1CO[C@@H]2C [Compound 197]
[1]; [5]
  IC50: > 1000 nM

From patent publication US20250136594A1 (Tango Therapeutics, Inc., priority 2022, published 2025)
